For this experiment, the target named is T1, B7-H4 IgV-huIgG1 (human).
T1 construct: It starts at Met 1 of B7-H4, so it includes the N-terminal leader; It is the IgV part of human B7-H4 fused to a human IgG1 Fc; also called human B7-H4 protein
Briefly: SPR; antibody captured on anti-human Fab, B7-H4 IgV-huIgG1 flowed at 0-300 nM; 1:1 model. On the procedure:
Briefly, anti-human Fab antibody was immobilized on a carboxyl-derivatized SPR chip surface, and anti-B7-H4 antibodies were captured on the resulting surface at 5 ug/ml for 30 seconds. B7-H4 IgV-huIgG1 at various concentrations (0 nM, 3.7 nM, 11.1 nM, 33.3 nM, 100 nM, and 300 nM) was then flowed over the surface and allowed to bind to the anti-B7-H4 antibodies during the association phase, followed by a buffer wash during the dissociation phase.
Thus there is no impact of the glycosylation on binding.

Chain of B7-H4 IgV-huIgG1 (chain, as listed by the source limits assumed): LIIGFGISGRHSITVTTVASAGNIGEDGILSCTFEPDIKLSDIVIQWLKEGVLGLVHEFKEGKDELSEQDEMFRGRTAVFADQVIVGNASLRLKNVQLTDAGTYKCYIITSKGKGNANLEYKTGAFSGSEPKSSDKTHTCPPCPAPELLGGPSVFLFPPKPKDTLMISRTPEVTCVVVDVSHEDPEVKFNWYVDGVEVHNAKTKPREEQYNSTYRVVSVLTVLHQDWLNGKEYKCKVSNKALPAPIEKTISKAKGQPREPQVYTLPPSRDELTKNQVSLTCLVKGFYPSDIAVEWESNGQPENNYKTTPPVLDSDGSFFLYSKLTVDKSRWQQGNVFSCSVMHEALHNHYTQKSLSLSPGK

B1: afucosylated 20502 antibody (antibody, human IgG1, kappa)
heavy: QLQLQESGPGLVKPSETLSLTCTVSGGSIKSGSYYWGWIRQPPGKGLEWIGNIYYSGSTYYNPSLRSRVTISVDTSKNQFSLKLSSVTAADTAVYYCAREGSYPNQFDPWGQGTLVTVSS[human IgG1 constant region left out here]
light: EIVMTQSPATLSVSPGERATLSCRASQSVSSNLAWYQQKPGQAPRLLIYGASTRATGIPARFSGSGSGTEFTLTISSLQSEDFAVYYCQQYHSFPFTFGGGTKVEIKRTVAAPSVFIFPPSDEQLKSGTASVVCLLNNFYPREAKVQWKVDNALQSGNSQESVTEQDSKDSTYSLSSTLTLSKADYEKHKVYACEVTHQGLSSPVTKSFNRGEC
modifications: Fc glycan lacks fucose (afucosylated; made in CHO-y cells)
notes: Human IgG1/kappa anti-B7-H4 antibody; it differs only in lacking fucose on the Fc glycan; also called Ab-A
Consider B1, for which the binding result is listed as “binds”.

B2: fucosylated 20502 antibody (antibody, human IgG1, kappa)
heavy: B1 heavy
light: B1 light
modifications: normally fucosylated Fc glycan (made in CHO-x cells)
notes: Human IgG1/kappa anti-B7-H4 antibody, normally fucosylated; also called Ab-F
For the molecule B2, the binding result is listed as “binds”.

(Values after patent US20210332137A1 (Five Prime, published 2021).)
